Assay results: patent publication US20180273573A1, “INHIBITORS OF MENAQUINONE BIOSYNTHESIS” (Memorial Sloan-Kettering Cancer Center, priority 2015, published 2018)
Values after ≈ are worked out from the molar mass of the structure shown. Read-outs that look alike come from different tables or passages of the source.

Experiments:
B. subtilis (ATCC 6051) = test: MIC, Alamar blue assay; assay type: cell-based; details: Table E5; for MIC: Bacillus subtilis, ATCC6051
[1] = test system: MRSA, S. aureus (ATCC BAA-1762); test: MIC, Alamar blue assay; assay type: cell-based, methicillin-resistant S. aureus; details: Table E5; for MIC: Staphylococcus aureus
E. coli MenE (ecMenE) = E. coli MenE (ecMenE) (Escherichia coli, UniProt P37353); test: MenE-MenB coupled assay (enzyme inhibition, catalytic parameters); details: wild-type ecMenE, substrate OSB
Chain of E. coli MenE (ecMenE) (P37353 whole entry): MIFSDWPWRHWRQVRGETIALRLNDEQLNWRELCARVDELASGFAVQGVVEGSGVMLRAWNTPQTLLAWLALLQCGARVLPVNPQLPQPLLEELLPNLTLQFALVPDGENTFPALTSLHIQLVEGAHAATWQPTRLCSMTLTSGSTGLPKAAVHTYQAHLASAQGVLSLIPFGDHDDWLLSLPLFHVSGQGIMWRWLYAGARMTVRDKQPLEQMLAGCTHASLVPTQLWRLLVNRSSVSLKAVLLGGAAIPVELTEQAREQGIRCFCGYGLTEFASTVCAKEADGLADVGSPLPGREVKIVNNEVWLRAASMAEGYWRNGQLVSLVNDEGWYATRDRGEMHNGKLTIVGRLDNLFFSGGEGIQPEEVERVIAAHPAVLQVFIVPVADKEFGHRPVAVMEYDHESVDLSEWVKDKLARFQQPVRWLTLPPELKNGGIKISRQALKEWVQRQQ

[2] = with addition of exogenous menaquinone-4 (10 μg/mL), read-out: B. subtilis MIC (in parentheses)
[3] = without menaquinone-4, read-out: B. subtilis MIC
[4] = with addition of exogenous menaquinone-4 (10 μg/mL), read-out: MRSA MIC (in parentheses)
[5] = without menaquinone-4, read-out: MRSA MIC
[6] = with addition of exogenous menaquinone-4 (10 μg/mL)

Row | Structure (SMILES) | MIC (B. subtilis (ATCC 6051); [2]) | MIC (B. subtilis (ATCC 6051); [3]) | MIC [1, 4] | MIC [1, 5] | other results
1 | Nc1ncnc2c1ncn2[C@@H]1O[C@H](COS(=O)(=O)NC(=O)CC[C@]2(O)c3ccccc3[C@H](O)C2(F)F)[C@@H](O)[C@H]1O [(1S,3S)-2, 5′-O—(N-[3″-((1S,3S)-2′″,2′″-difluoro-1′″,3′″-dihydroxy-1′″-indanyl)propanoyl]sulfamoyl)adenosine] | 15.6 µg/mL (≈ 26.6 µM) | 15.6 µg/mL (≈ 26.6 µM) | 15.6 µg/mL (≈ 26.6 µM) | 15.6 µg/mL (≈ 26.6 µM) | 
2 | Nc1ncnc2c1ncn2[C@@H]1O[C@H](COS(=O)(=O)NC(=O)CCC(=O)c2ccccc2-c2nn[nH]n2)[C@@H](O)[C@H]1O [Compound 105, 5′-O—(N-[4-(2-(2H-Tetrazol-5-yl)phenyl)-4-oxobutanoyl]sulfamoyl)adenosine] |  |  |  |  | pKa (physchem): 3.4
3 | O=C(O)CCC(=O)c1ccccc1C(=O)O [OSB, o-succinylbenzoate, reference compound] |  |  |  |  | Km (E. coli MenE (ecMenE); read-out: KM OSB): 1 ± 0.02 µM; kcat (E. coli MenE (ecMenE)): 0.767 ± 0.0017 s⁻¹
4 | Nc1ncnc2c1ncn2[C@@H]1O[C@H](COS(N)(=O)=O)[C@@H](O)[C@H]1O [AMS, adenosinemonosulfamate, reference compound] |  |  |  |  | B. subtilis MIC (in parentheses) (B. subtilis (ATCC 6051); [6]): 3.9 (3.9) μg/mL; B. subtilis MIC (B. subtilis (ATCC 6051); without menaquinone-4): 3.9 (3.9) μg/mL; MRSA MIC (in parentheses) [1, 6]: 1.9 (1.9) μg/mL; MRSA MIC ([1]; without menaquinone-4): 1.9 (1.9) μg/mL
5 | Nc1ncnc2c1ncn2[C@@H]1O[C@H](COS(=O)(=O)NC(=O)CC[C@@]2(O)c3ccccc3[C@@H](O)C2(F)F)[C@@H](O)[C@H]1O [(1R,3R)-2, 5′-O—(N-[3″-((1R,3R)-2′″,2′″-difluoro-1′″,3′″-dihydroxy-1′″-indanyl)propanoyl]-sulfamoyl)adenosine] | 15.6 µg/mL (≈ 26.6 µM) | 15.6 µg/mL (≈ 26.6 µM) | 15.6 µg/mL (≈ 26.6 µM) | 15.6 µg/mL (≈ 26.6 µM) | 
